# Measurements published in the supplement of paper PMC8728848.
# The list shows a part of the results.
# Columns and labels:
# Assay in all cases: glycan array binding signal (z-score within array); higher = stronger binding
# Conditions in all cases: glycan notation: IUPAC condensed, linker removed
# [1] = biological target: Neu5Ac(a2-3)Gal(b1-3)GalNAc
# In short: (§1)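 Columns mapping to the same glycan were averaged after glycan names were converted to IUPAC-condensed notation. The data come from 3228 arrays in the Consortium for Functional Glycomics database, limited to those with an available protein sequence. Binding is reported as a within-array Z-score averaged across arrays of one protein sequence and across linkers.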
# [2] = biological target: Neu5Ac(a2-3)Gal(b1-3)GalNAc(b1-3)Gal(a1-4)Gal(b1-4)Glc
# In short: as §1
# [3] = biological target: Neu5Ac(a2-3)Gal(b1-3)GalNAc(b1-4)[Neu5Ac(a2-3)]Gal(b1-4)Glc
# In short: as §1
# [4] = biological target: Neu5Ac(a2-3)Gal(b1-3)GalNAc(b1-4)[Neu5Ac(a2-8)Neu5Ac(a2-3)]Gal(b1-4)Glc
# In short: as §1
# [5] = biological target: Neu5Ac(a2-3)Gal(b1-3)GalNAc6S
# In short: as §1
# [6] = biological target: Neu5Ac(a2-3)Gal(b1-3)GlcNAc
# In short: as §1
# [7] = biological target: Neu5Ac(a2-3)Gal(b1-3)GlcNAc(b1-2)Man
# In short: as §1
# [8] = biological target: Neu5Ac(a2-3)Gal(b1-3)GlcNAc(b1-2)Man(a1-3)[GlcNAc(b1-4)][Neu5Ac(a2-3)Gal(b1-3)GlcNAc(b1-2)Man(a1-6)]Man(b1-4)GlcNAc(b1-4)GlcNAc
# In short: as §1
# [9] = biological target: Neu5Ac(a2-3)Gal(b1-3)GlcNAc(b1-2)Man(a1-3)[Neu5Ac(a2-3)Gal(b1-3)GlcNAc(b1-2)Man(a1-6)]Man(b1-4)GlcNAc(b1-4)GlcNAc
# In short: as §1
# [10] = biological target: Neu5Ac(a2-3)Gal(b1-3)GlcNAc(b1-3)Gal(b1-3)GlcNAc
# In short: as §1
# [11] = biological target: Neu5Ac(a2-3)Gal(b1-3)GlcNAc(b1-3)Gal(b1-4)GlcNAc
# In short: as §1
# [12] = biological target: Neu5Ac(a2-3)Gal(b1-3)GlcNAc(b1-3)GalNAc
# In short: as §1
# [13] = biological target: Neu5Ac(a2-3)Gal(b1-3)GlcNAc(b1-4)Gal(b1-4)Glc
# In short: as §1
# [14] = biological target: Neu5Ac(a2-3)Gal(b1-3)GlcNAc(b1-6)GalNAc
# In short: as §1
# [15] = biological target: Neu5Ac(a2-3)Gal(b1-3)GlcNAc6S
# In short: as §1
# [16] = biological target: Neu5Ac(a2-3)Gal(b1-3)[Fuc(a1-4)]GlcNAc
# In short: as §1
# [17] = biological target: Neu5Ac(a2-3)Gal(b1-3)[Fuc(a1-4)]GlcNAc(b1-3)Gal(b1-3)[Fuc(a1-4)]GlcNAc
# In short: as §1
# [18] = biological target: Neu5Ac(a2-3)Gal(b1-3)[Fuc(a1-4)]GlcNAc(b1-3)Gal(b1-4)[Fuc(a1-3)]GlcNAc
# In short: as §1
# [19] = biological target: Neu5Ac(a2-3)Gal(b1-3)[GlcNAc(b1-6)]GalNAc
# In short: as §1
# [20] = biological target: Neu5Ac(a2-3)Gal(b1-3)[Neu5Ac(a2-6)]GalNAc
# In short: as §1
# [21] = biological target: Neu5Ac(a2-3)Gal(b1-3)[Neu5Ac(a2-6)]GlcNAc(b1-3)[Fuc(a1-3)[Gal(b1-4)]GlcNAc(b1-6)]Gal(b1-4)Glc
# In short: as §1
# [22] = biological target: Neu5Ac(a2-3)Gal(b1-3)]Neu5Ac(a2-3)Gal(b1-4)]GlcNAc
# In short: as §1
# Neu5Ac(a2-3)Gal(b1-4)Glc = biological target: Neu5Ac(a2-3)Gal(b1-4)Glc
# In short: as §1
# [23] = biological target: Neu5Ac(a2-3)Gal(b1-4)GlcNAc
# In short: as §1
# [24] = biological target: Neu5Ac(a2-3)Gal(b1-4)GlcNAc(b1-2)Man
# In short: as §1
# [25] = biological target: Neu5Ac(a2-3)Gal(b1-4)GlcNAc(b1-2)Man(a1-3)[GlcNAc(b1-4)][Neu5Ac(a2-3)Gal(b1-4)GlcNAc(b1-2)Man(a1-6)]Man(b1-4)GlcNAc(b1-4)GlcNAc
# In short: as §1
# [26] = biological target: Neu5Ac(a2-3)Gal(b1-4)GlcNAc(b1-2)Man(a1-3)[Neu5Ac(a2-3)Gal(b1-4)GlcNAc(b1-2)Man(a1-6)]Man(b1-4)GlcNAc(b1-4)GlcNAc
# In short: as §1
# [27] = biological target: Neu5Ac(a2-3)Gal(b1-4)GlcNAc(b1-2)Man(a1-3)[Neu5Ac(a2-3)Gal(b1-4)GlcNAc(b1-2)Man(a1-6)]Man(b1-4)GlcNAc(b1-4)[Fuc(a1-6)]GlcNAc
# In short: as §1
# [28] = biological target: Neu5Ac(a2-3)Gal(b1-4)GlcNAc(b1-2)Man(a1-3)[Neu5Ac(a2-6)Gal(b1-4)GlcNAc(b1-2)Man(a1-6)]Man(b1-4)GlcNAc(b1-4)GlcNAc
# In short: as §1
# [29] = biological target: Neu5Ac(a2-3)Gal(b1-4)GlcNAc(b1-2)[Neu5Ac(a2-3)Gal(b1-4)GlcNAc(b1-4)]Man(a1-3)[GlcNAc(b1-4)][Neu5Ac(a2-3)Gal(b1-4)GlcNAc(b1-2)[Neu5Ac(a2-3)Gal(b1-4)GlcNAc(b1-6)]Man(a1-6)]Man(b1-4)GlcNAc(b1-4)GlcNAc
# In short: as §1
# [30] = biological target: Neu5Ac(a2-3)Gal(b1-4)GlcNAc(b1-2)[Neu5Ac(a2-3)Gal(b1-4)GlcNAc(b1-4)]Man(a1-3)[GlcNAc(b1-4)][Neu5Ac(a2-3)Gal(b1-4)GlcNAc(b1-4)Man(a1-6)]Man(b1-4)GlcNAc(b1-4)GlcNAc
# In short: as §1
# [31] = biological target: Neu5Ac(a2-3)Gal(b1-4)GlcNAc(b1-2)[Neu5Ac(a2-3)Gal(b1-4)GlcNAc(b1-6)]Man(a1-6)[Neu5Ac(a2-3)Gal(b1-4)GlcNAc(b1-2)Man(a1-3)]Man(b1-4)GlcNAc(b1-4)GlcNAc
# In short: as §1
# [32] = biological target: Neu5Ac(a2-3)Gal(b1-4)GlcNAc(b1-2)[Neu5Ac(a2-3)Gal(b1-4)GlcNAc(b1-6)]Man(a1-6)[Neu5Ac(a2-3)Gal(b1-4)GlcNAc(b1-2)Man(a1-3)][GlcNAc(b1-4)]Man(b1-4)GlcNAc(b1-4)GlcNAc
# In short: as §1
# [33] = biological target: Neu5Ac(a2-3)Gal(b1-4)GlcNAc(b1-3)Gal
# In short: as §1
# [34] = biological target: Neu5Ac(a2-3)Gal(b1-4)GlcNAc(b1-3)Gal(b1-3)GlcNAc
# In short: as §1
# [35] = biological target: Neu5Ac(a2-3)Gal(b1-4)GlcNAc(b1-3)Gal(b1-4)GlcNAc
# In short: as §1
# [36] = biological target: Neu5Ac(a2-3)Gal(b1-4)GlcNAc(b1-3)Gal(b1-4)GlcNAc(b1-2)Man(a1-3)[Neu5Ac(a2-3)Gal(b1-4)GlcNAc(b1-3)Gal(b1-4)GlcNAc(b1-2)Man(a1-6)]Man(b1-4)GlcNAc(b1-4)GlcNAc
# In short: as §1
binder,measurement,setting,value
GS7807P-bth-537-23-537 (Bacteroides thetaiotaomicron) (protein) NYENINSNPYEAPDLSADGYALGSAMNNLAGCVVSPDVNTAQFTDCLLGGPLGGYFADSNAGFTETISNFNPKDDWSRVFLKSDKIIPTLYSNLTQVKLVSQNTNDPVPYAIAQVIKVAAMHRVTDAFGPIPYSQIGANGEIATPYDSQEVTYNTFFDELNAAIATLNENSNEQLVPTADYIYKGDVKKWIRFANSLKLRLAIRIAYANPVKAQQMAEEAVNPANGGVIESNADNATWNYFETSQNPIYVATRYNQVQTSDHGGVPCLTGGDTHAAADIICYMNGYKDNRREKFFTKSEWAGQDYVGMRRGIVIPELKTTGHKYSGVNIAPTSPLYWMNAAEVAFLRAEGQAVFNFSMGGTAESFYNQGIRLSFEQWGADGVEDYLKDDVNKPTAYTDPAGTNTYQNALSNITIKWNDSADKEEKQERIIVQKWIANWQLGNEAWADFRRTGYPKLIPVKENKSGGVVDSEKGARRMPYPLDEFVSNKANVEYAIANYLHGADNMATDVWWASKK,glycan array binding signal (z-score),[1],-0.218
same,glycan array binding signal (z-score),[2],-0.339
same,glycan array binding signal (z-score),[3],-0.361
same,glycan array binding signal (z-score),[4],-0.381
same,glycan array binding signal (z-score),[5],-0.401
same,glycan array binding signal (z-score),[6],-0.36
same,glycan array binding signal (z-score),[7],-0.048
same,glycan array binding signal (z-score),[8],-0.273
same,glycan array binding signal (z-score),[9],-0.362
same,glycan array binding signal (z-score),[10],-0.379
same,glycan array binding signal (z-score),[11],-0.314
same,glycan array binding signal (z-score),[12],-0.366
same,glycan array binding signal (z-score),[13],-0.398
same,glycan array binding signal (z-score),[14],-0.245
same,glycan array binding signal (z-score),[15],-0.368
same,glycan array binding signal (z-score),[16],-0.367
same,glycan array binding signal (z-score),[17],-0.361
same,glycan array binding signal (z-score),[18],-0.292
same,glycan array binding signal (z-score),[19],-0.357
same,glycan array binding signal (z-score),[20],-0.387
same,glycan array binding signal (z-score),[21],-0.367
same,glycan array binding signal (z-score),[22],-0.345
same,glycan array binding signal (z-score),Neu5Ac(a2-3)Gal(b1-4)Glc,-0.323
same,glycan array binding signal (z-score),[23],-0.338
same,glycan array binding signal (z-score),[24],-0.033
same,glycan array binding signal (z-score),[25],-0.359
same,glycan array binding signal (z-score),[26],-0.144
same,glycan array binding signal (z-score),[27],-0.383
same,glycan array binding signal (z-score),[28],0.129
same,glycan array binding signal (z-score),[29],-0.339
same,glycan array binding signal (z-score),[30],-0.363
same,glycan array binding signal (z-score),[31],-0.221
same,glycan array binding signal (z-score),[32],0.16
same,glycan array binding signal (z-score),[33],-0.399
same,glycan array binding signal (z-score),[34],-0.359
same,glycan array binding signal (z-score),[35],-0.302
same,glycan array binding signal (z-score),[36],-0.026
